In ChEMBL document CHEMBL4888484, “Replenishing the malaria drug discovery pipeline: Screening and hit evaluation of the MMV Hit Generation Library 1 (HGL1) against asexual blood stage Plasmodium falciparum ,using a nano luciferase reporter read-out” (2022):
The whole screen tested about 150,000 compounds, of which about 540 (0.36%) showed an effect of 50% or more. The list shows a part of the results.

Test system: Plasmodium falciparum
Assay: Primary screen in NF54 nanoGlo assay, in single point, at 2uM, 72h; a lower Z score goes with more inhibition
Assay type: functional, Erythrocyte
Conditions: timepoint 72 hour

**Q.** How did the “% Inhibition” value turn out when CCOc1cccc2c1Oc1c(c(=O)n(-c3ccc(CC)cc3)n1CC(=O)Nc1ccc3c(c1)OCCO3)C2 was run?
**A.** -16%

**Q.** And the Z score?
**A.** 1.62

**Q.** For COc1ccc(N2C(=O)[C@@H]3CCCN3[C@H]2c2ccc(N(C)C)cc2)cc1Cl, which “% Inhibition” value is on record?
**A.** -10%

**Q.** And the Z score?
**A.** 1.25

**Q.** With Cc1cc(Br)cnc1N(C)CCN1CCCC1=O as the compound, how does the “% Inhibition” value read?
**A.** -13%

**Q.** And the Z score?
**A.** 1.43

**Q.** How did the “% Inhibition” value turn out when COC1CCN(C(=O)c2ccc3c(c2)n(CC2CC2)c(=O)n3C2CCCCC2)CC1 was run?
**A.** -3%

**Q.** And the Z score?
**A.** 0.31

**Q.** How did the “% Inhibition” value turn out when COC(=O)Cc1cc(O)n(-c2ccccn2)n1 was run?
**A.** -6%

**Q.** And the Z score?
**A.** 1.1

**Q.** Which “% Inhibition” value does the source give for Cc1cccc(CN2CCN(Cc3cnn(C)c3C)C[C@@H]2CCO)n1 here?
**A.** -7%

**Q.** And the Z score?
**A.** 1.06

**Q.** COC(=O)c1nscc1S(=O)(=O)N1CCOCC(F)(F)C1 was tested. Which “% Inhibition” value did it give?
**A.** -4%

**Q.** And the Z score?
**A.** 0.64

**Q.** NC(=O)CCN1CCC[C@H](c2nc3ccccc3s2)C1 was tested. Which “% Inhibition” value did it give?
**A.** -1%

**Q.** What about the Z score of the same compound?
**A.** 0.1

**Q.** With C=Cc1ccc(C(=O)NCC[C@H]2CCCN(C)C2)cc1 as the compound, how does the “% Inhibition” value read?
**A.** -11%

**Q.** And the Z score?
**A.** 1.66

**Q.** With NC(=O)c1ccc(=O)n(Cc2ccn(-c3ccccc3)n2)n1 as the compound, how does the “% Inhibition” value read?
**A.** -11%

**Q.** And the Z score?
**A.** 1.28

**Q.** What does the source list for CS(=O)(=O)C1CCN(C(=O)c2nc3ccccc3s2)CC1?
**A.** % Inhibition: -9%; Z score: 1.55

**Q.** For Nc1nc2c(s1)[C@@H](c1ccccc1OCc1ccccc1)CC(O)=N2, which “% Inhibition” value is on record?
**A.** 27%

**Q.** What about the Z score of the same compound?
**A.** -3.03

**Q.** Which results are given for COCC(=O)N1CCOCC(F)(F)C1?
**A.** % Inhibition: 5%; Z score: -0.47

**Q.** What does the source list for CCc1ccc(CNC(=O)c2ccncc2)s1?
**A.** % Inhibition: -4%; Z score: 0.35

**Q.** Which “% Inhibition” value does the source give for CC(C)N1CCNC(=O)[C@@H]1Cc1nc(-c2cccnc2)no1 here?
**A.** -14%

**Q.** And the Z score?
**A.** 1.98

**Q.** Which results are given for Cc1nn(C)c2nc(OCC(=O)NC(C)(C)C)cc(C(F)(F)F)c12?
**A.** % Inhibition: -8%; Z score: 0.92

**Q.** How did the “% Inhibition” value turn out when Cc1cc(CN(C)Cc2sncc2Br)no1 was run?
**A.** -6%

**Q.** And the Z score?
**A.** 1.16

**Q.** With COCC(C)(C)CC(=O)NC[C@H]1CC[C@H](c2ccccc2)O1 as the compound, how does the “% Inhibition” value read?
**A.** -14%

**Q.** And the Z score?
**A.** 2.06

**Q.** Which results are given for Cc1cc(N2CC(C)OC(C)C2)nc(C(C)N2CC(C)OC(C)C2)n1 (stereo not given)?
**A.** % Inhibition: -11%; Z score: 1.53

**Q.** What does the source list for CCOc1ncccc1C(=O)N(CC)CC(=O)NCc1cccs1?
**A.** % Inhibition: -13%; Z score: 1.08

**Q.** Which “% Inhibition” value does the source give for C[C@@]1(C(=O)NC2CCCCCCC2)CCC(=O)N1Cc1cccnc1 here?
**A.** -6%

**Q.** And the Z score?
**A.** 0.95

**Q.** With CCC(=O)N1CCC(OC2CCN(C(=O)CC)CC2)CC1 as the compound, how does the “% Inhibition” value read?
**A.** -11%

**Q.** And the Z score?
**A.** 1.3

**Q.** O=C(CCc1nc2ccccc2c(=O)[nH]1)Nc1nc[nH]n1 was tested. Which “% Inhibition” value did it give?
**A.** -6%

**Q.** And the Z score?
**A.** 0.82

**Q.** CN(Cc1ccccc1)[C@H]1CCCN(C(=O)c2nc3ncccn3n2)C1 was tested. Which “% Inhibition” value did it give?
**A.** -5%

**Q.** And the Z score?
**A.** 0.84

**Q.** Which results are given for COc1ccc(CCC(=O)N[C@H]2CC[C@@H](n3cc(C(=O)NC(C)C)nn3)CC2)cc1?
**A.** % Inhibition: 22%; Z score: -2.78

**Q.** For CO[C@H]1[C@H](NC(=O)c2sccc2Cl)c2ccccc2C12CCNCC2, which “% Inhibition” value is on record?
**A.** 5%

**Q.** And the Z score?
**A.** -0.82

**Q.** With O=C1C[C@H](c2noc(-c3cc(F)cc(F)c3)n2)CN1c1ccc(F)cc1 as the compound, how does the “% Inhibition” value read?
**A.** -11%

**Q.** What about the Z score of the same compound?
**A.** 1.03

**Q.** With CCCc1nnc(NC[C@@H](c2ccncc2)N2CCOCC2)o1 as the compound, how does the “% Inhibition” value read?
**A.** -10%

**Q.** And the Z score?
**A.** 1.36

**Q.** What does the source list for O=C(Nc1ccsc1C(=O)NCc1cc(F)cc(F)c1)c1cnccn1?
**A.** % Inhibition: 39%; Z score: -1.29

**Q.** For Cc1nsc(NC(=O)N2CCCN(c3ccncc3)CC2)n1, which “% Inhibition” value is on record?
**A.** -8%

**Q.** What about the Z score of the same compound?
**A.** 1.15

**Q.** How did the “% Inhibition” value turn out when Cn1c(=O)c2c(ncn2CC(=O)N2CCN(c3ccccc3F)CC2)n(C)c1=O was run?
**A.** -11%

**Q.** And the Z score?
**A.** 1.44

**Q.** For COc1ccc2c(c1)CCC[C@@]2(O)CNC(=O)CC1CC1, which “% Inhibition” value is on record?
**A.** 4%

**Q.** And the Z score?
**A.** -0.55

**Q.** What does the source list for C[C@]1(Cc2cccc3ccccc23)CCCN1?
**A.** % Inhibition: 8%; Z score: -1.14

**Q.** How did the “% Inhibition” value turn out when CC(C)[C@H](NC(=O)OC(C)(C)C)c1nnc(S(=O)(=O)Cc2cccc(Cl)c2)o1 was run?
**A.** -7%

**Q.** What about the Z score of the same compound?
**A.** 1.11

**Q.** Which “% Inhibition” value does the source give for CC(C)Cc1csc(C(=O)Nc2ccccc2)c1C(=O)Nc1ccc(Cl)cc1 here?
**A.** 0%

**Q.** What about the Z score of the same compound?
**A.** -0.05

**Q.** Which “% Inhibition” value does the source give for CC(=O)NCCCC(=O)N1CCC(O)(c2ccc3nc(C)ccc3c2)CC1 here?
**A.** 10%

**Q.** What about the Z score of the same compound?
**A.** -1.26

**Q.** Cn1cc2c(n1)CCC[C@H]2C(=O)N1CC(N2CCNC2=O)C1 was tested. Which “% Inhibition” value did it give?
**A.** -5%

**Q.** What about the Z score of the same compound?
**A.** 0.8

**Q.** How did the “% Inhibition” value turn out when CC(=O)N1CCN(C(=O)c2cc(C)n(C)n2)CC[C@H]1c1nc(C)no1 was run?
**A.** -4%

**Q.** And the Z score?
**A.** 0.59

**Q.** How did the “% Inhibition” value turn out when CC(C)n1cnc(NC(=O)CN2CCCC3(CC3)S2(=O)=O)n1 was run?
**A.** 6%

**Q.** What about the Z score of the same compound?
**A.** -1.04

**Q.** Which results are given for COC1(c2nccn2C)CN(C(=O)OCC(F)(F)F)C1?
**A.** % Inhibition: -8%; Z score: 0.96

**Q.** Which “% Inhibition” value does the source give for O=C(NCC(N1CCOCC1)C(F)(F)F)C1CC12CCOC2 (stereo not given) here?
**A.** 41%

**Q.** What about the Z score of the same compound?
**A.** -1.51

**Q.** CC(=O)c1ccc(OCC(=O)NCC(F)(F)F)cc1F was tested. Which “% Inhibition” value did it give?
**A.** -8%

**Q.** What about the Z score of the same compound?
**A.** 1.05

**Q.** How did the “% Inhibition” value turn out when O=C(c1cccs1)N1CCN(c2nnc3ccc(C(F)(F)F)cn23)CC1 was run?
**A.** -22%

**Q.** And the Z score?
**A.** 2.46

**Q.** What does the source list for CC(C)CC1CC(NC(=O)Nc2ccccc2Cc2ccccc2)CCO1 (stereo not given)?
**A.** % Inhibition: 2%; Z score: -0.32

**Q.** What does the source list for Cc1ccc2oc(-c3noc(C(=O)NCc4ccc(C)o4)n3)c(C)c2c1?
**A.** % Inhibition: -14%; Z score: 1.85

**Q.** Cc1c(NC(=O)CN2CC(Oc3ccccc3F)C2)cnn1C was tested. Which “% Inhibition” value did it give?
**A.** -11%

**Q.** What about the Z score of the same compound?
**A.** 2.18

**Q.** With CCCC[C@@H](COC)NC(=O)C(=O)Nc1cnn(CC(=O)N(C)C)c1 as the compound, how does the “% Inhibition” value read?
**A.** -11%

**Q.** And the Z score?
**A.** 1.55

**Q.** CN(CC(=O)Nc1cc(F)cc(F)c1)Cc1ncc(C(C)(C)C)o1 was tested. Which “% Inhibition” value did it give?
**A.** 11%

**Q.** And the Z score?
**A.** -1.37

**Q.** With COC1C(C)C(NC(=O)NCCS(=O)(=O)NC(C)C)C1(C)C (stereo not given) as the compound, how does the “% Inhibition” value read?
**A.** -2%

**Q.** What about the Z score of the same compound?
**A.** 0.29

**Q.** Which “% Inhibition” value does the source give for CCCCC(=O)Nc1cccc(C#Cc2ccccn2)c1 here?
**A.** -11%

**Q.** And the Z score?
**A.** 1.51

**Q.** Which “% Inhibition” value does the source give for Cc1cc(=O)[nH]c(C)c1C(=O)N1CCC2(CCC(=O)N(C3CC3)C2)CC1 here?
**A.** -16%

**Q.** And the Z score?
**A.** 1.52

**Q.** COc1ccc(N(CCC(C)C)C(=O)[C@@H]2CNC(=O)c3ccccc32)cc1 was tested. Which “% Inhibition” value did it give?
**A.** 1%

**Q.** And the Z score?
**A.** -0.13

**Q.** What does the source list for O=C(O)[C@H]1CCCN1Cc1cnn(-c2ccccc2)c1?
**A.** % Inhibition: -12%; Z score: 1.92

**Q.** What does the source list for CC1(CON=C(N)CN2CCOCC2)CCC1?
**A.** % Inhibition: -18%; Z score: 3.09

**Q.** Which results are given for CC(NC(=O)C1C2CCC(C2)N1C(=O)NC1CCCCC1)c1ccccc1 (stereo not given)?
**A.** % Inhibition: 14%; Z score: -1.42
